Out of some 220,000 compounds screened, about 5,700 (2.6%) were called active. Inconclusive results, whose numbers are uncertain, are shown with a selection of clear calls. Calls follow the shape of the dose curve; as a rule, active = well fitted inhibition curve with a large enough effect; inconclusive = small, poorly fitted or top-dose-only effect; inactive = no such curve, though single readings can be large or run the other way. Potencies beside an inconclusive call are fits to weak or partial responses and may not hold up.
Molecular target: Lysine-specific demethylase 5B (Homo sapiens) (UniProt Q9UGL1)
Assay: Primary screen for KDM5B Histone Demethylases FDH-coupled qHTS; also: nearly all actives have a fitted effect of over 70% in size
Settings: FDH-coupled NADH fluorescence (FDH is formaldehyde dehydrogenase); series mostly up to 57.7 µM
Procedure, shortened: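 Compound dilutions met 200 nM (final) KDM5BΔAP for 10 min at room temperature before substrate addition. The substrate mix held 12.5 µM H3K4me3 with cofactors 25 µM α-ketoglutarate and 50 µM Fe²⁺. NADH signal gain over 30 min defined activity.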
Potency is read from the fitted curve at half-maximal effect; tags tell the direction and shape of the fitted curve.

UniProt Q9UGL1, sequence (Q9UGL1 whole entry, looked up): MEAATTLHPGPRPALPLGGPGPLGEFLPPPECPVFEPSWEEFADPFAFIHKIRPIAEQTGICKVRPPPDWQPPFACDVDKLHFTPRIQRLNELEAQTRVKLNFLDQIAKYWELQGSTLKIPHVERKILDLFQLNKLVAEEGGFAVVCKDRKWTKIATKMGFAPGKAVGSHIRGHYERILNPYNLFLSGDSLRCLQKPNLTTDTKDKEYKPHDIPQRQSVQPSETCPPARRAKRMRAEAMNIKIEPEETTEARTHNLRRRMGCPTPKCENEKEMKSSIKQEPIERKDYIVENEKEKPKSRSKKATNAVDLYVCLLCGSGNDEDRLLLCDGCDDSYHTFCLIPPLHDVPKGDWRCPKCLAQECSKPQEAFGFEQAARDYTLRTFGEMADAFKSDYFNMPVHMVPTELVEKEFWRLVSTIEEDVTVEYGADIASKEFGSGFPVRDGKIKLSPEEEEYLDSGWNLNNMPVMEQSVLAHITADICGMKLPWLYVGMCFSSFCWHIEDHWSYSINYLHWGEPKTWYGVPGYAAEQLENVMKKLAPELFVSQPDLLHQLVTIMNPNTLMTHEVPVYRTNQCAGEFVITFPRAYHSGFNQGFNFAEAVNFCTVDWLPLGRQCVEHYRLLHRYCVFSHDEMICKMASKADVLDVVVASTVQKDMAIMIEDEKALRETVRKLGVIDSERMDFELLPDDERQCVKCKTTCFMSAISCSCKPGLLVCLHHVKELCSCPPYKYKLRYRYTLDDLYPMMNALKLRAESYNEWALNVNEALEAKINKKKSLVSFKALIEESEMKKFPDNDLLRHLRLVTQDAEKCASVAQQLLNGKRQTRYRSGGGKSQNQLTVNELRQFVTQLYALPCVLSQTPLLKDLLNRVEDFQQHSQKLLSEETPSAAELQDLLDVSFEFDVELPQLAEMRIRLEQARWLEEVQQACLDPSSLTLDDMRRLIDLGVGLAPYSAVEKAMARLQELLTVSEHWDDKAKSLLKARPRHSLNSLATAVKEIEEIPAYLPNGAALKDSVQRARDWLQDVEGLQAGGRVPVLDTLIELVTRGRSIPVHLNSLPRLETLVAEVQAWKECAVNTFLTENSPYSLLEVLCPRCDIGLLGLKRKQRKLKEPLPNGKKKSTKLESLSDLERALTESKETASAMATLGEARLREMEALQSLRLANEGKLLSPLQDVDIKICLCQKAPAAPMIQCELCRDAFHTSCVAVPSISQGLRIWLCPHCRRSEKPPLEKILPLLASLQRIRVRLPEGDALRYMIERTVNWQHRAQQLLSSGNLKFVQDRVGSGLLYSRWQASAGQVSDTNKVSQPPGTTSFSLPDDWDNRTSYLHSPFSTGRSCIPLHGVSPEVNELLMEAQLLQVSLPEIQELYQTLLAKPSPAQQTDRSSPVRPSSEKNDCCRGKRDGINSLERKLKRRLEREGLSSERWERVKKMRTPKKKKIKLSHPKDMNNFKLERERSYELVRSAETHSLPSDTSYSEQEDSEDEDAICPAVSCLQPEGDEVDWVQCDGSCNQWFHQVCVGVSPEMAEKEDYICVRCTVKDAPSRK

**Q.** Which Potency does the source give for `O=C(Cc1cccc(F)c1)N1CCCC(Cc2nc(C3CCOCC3)no2)C1` (configuration not stated) here?
**A.** active: 28.2 µM

**Q.** For `COc1ccc2c(C)c(CCC(=O)Nc3ccc(F)c(F)c3)c(=O)oc2c1`, which Potency is on record?
**A.** inconclusive: 25.1 µM [inhibitor, partial curve, poor fit]

**Q.** For `CCCc1cc(=O)oc2cc(C)cc(OC(C)C(=O)NCCN3CCOCC3)c12` (configuration not stated), which Potency is on record?
**A.** inconclusive: 22.4 µM [inhibitor, partial curve, poor fit]

**Q.** With `O=C(CN1CCN(C(=O)c2cc3c(s2)CN(C2CCCC2)C3)CC1)N1CCCC1` as the molecule, how does the Potency read?
**A.** inconclusive: 7.08 µM [inhibitor, partial curve, poor fit]

**Q.** With `Cc1nc(NC(=O)c2ccccc2)sc1-c1csc(Nc2cccc(Br)c2)n1` as the molecule, how does the Potency read?
**A.** inconclusive: 22.4 µM [inhibitor, partial curve, poor fit]

**Q.** Which Potency does the source give for `COc1ccc(CCNC(=O)c2ccc(-n3c(C)cc4c3CCCC4)cc2)cc1OC` here?
**A.** inconclusive: 22.4 µM [inhibitor, partial curve, poor fit]

**Q.** How did the Potency turn out when `Cc1cnc(C)c(-c2cc(O)c3c(c2)CN(C(=O)c2ccncn2)CCO3)n1` was run?
**A.** active: 25.1 µM

**Q.** How did the Potency turn out when `COCC(=O)N[C@H]1C[C@H]2C(=O)NC[C@@H](CCC(=O)N3CCN(c4ccccc4)CC3)N2C1` was run?
**A.** inconclusive: 20 µM [inhibitor, single point]

**Q.** With `CN1Cc2ccc(Nc3ccccc3)nc2C(C)(C(=O)NCCc2cnc[nH]2)C1` (configuration not stated) as the molecule, how does the Potency read?
**A.** inconclusive: 28.2 µM [inhibitor, partial curve]

**Q.** Which Potency does the source give for `Cc1nn2c(c1-c1ccccc1-c1ccccc1)N(C(=O)COc1ccccc1)CCC2` here?
**A.** inactive

**Q.** Which Potency does the source give for `COc1ccccc1CNc1nc(-c2ccc(C)cc2)cs1` here?
**A.** inactive

**Q.** Which Potency does the source give for `Oc1ccccc1/C=N/Nc1nc2ccccc2o1` here?
**A.** inconclusive: 25.1 µM [inhibitor, partial curve, poor fit]

**Q.** `Cc1ccc(C23CC4CC(CC(C(=O)N(C)C)(C4)C2)C3)cc1` was tested. Which Potency did it give?
**A.** inactive

**Q.** For `CC(NCCC(N)=O)c1cccc(Cl)c1` (configuration not stated), which Potency is on record?
**A.** inactive

**Q.** How did the Potency turn out when `CN(C)CCCn1c(N)c(S(=O)(=O)c2ccccc2)c2nc3ccccc3nc21` was run?
**A.** inconclusive: 25.1 µM [inhibitor, partial curve, poor fit]

**Q.** With `COc1ccc(-c2nc3cc(NC(=O)CC(C)C)ccc3o2)cc1` as the molecule, how does the Potency read?
**A.** inconclusive: 14.1 µM [inhibitor, partial curve, poor fit]

**Q.** How did the Potency turn out when `COc1cccc(N2CCN(C(=O)c3cc4c(=O)n(Cc5cccs5)ccc4nc3C)CC2)c1` was run?
**A.** inconclusive: 39.8 µM [inhibitor, single point]

**Q.** `O=C(c1ccc2nccn2c1)N1CCC(C(O)CCc2ccccc2)CC1` (configuration not stated) was tested. Which Potency did it give?
**A.** inactive

**Q.** With `N#Cc1ccc(NC(=O)C2CC(c3ccccc3)=NO2)cc1` (configuration not stated) as the molecule, how does the Potency read?
**A.** inactive

**Q.** `COC(=O)c1cc(-c2cnn(C)c2C)nc2ccccc12` was tested. Which Potency did it give?
**A.** inconclusive: 35.5 µM [inhibitor, partial curve, poor fit]

**Q.** With `COc1ccc(C2Cn3nnc(-c4noc(-c5cccc(Cl)c5)n4)c3CO2)cc1` (configuration not stated) as the molecule, how does the Potency read?
**A.** inactive

**Q.** How did the Potency turn out when `COc1cccc2cc(S(=O)(=O)c3cc(F)cc(F)c3)c(=O)oc12` was run?
**A.** inactive

**Q.** How did the Potency turn out when `Cc1c(C)c2ccc(OCC(=O)NCCc3ccc(S(N)(=O)=O)cc3)c(C)c2oc1=O` was run?
**A.** inconclusive: 8.91 µM [inhibitor, partial curve, poor fit]

**Q.** With `CCOC(=O)c1ccc(NC(=O)c2csc3c2CCCC3)cc1` as the molecule, how does the Potency read?
**A.** inconclusive: 17.8 µM [inhibitor, partial curve, poor fit]

**Q.** For `O=C1NCCN2CC3(CCN(C(=O)COc4ccc(F)cc4)CC3)CC12` (configuration not stated), which Potency is on record?
**A.** inconclusive: 28.2 µM [inhibitor, single point]

**Q.** Which Potency does the source give for `Cc1nc(CCNC(=O)C2CCCN(c3nc(-c4ccccc4)nc4c3CCC4)C2)n[nH]1` (configuration not stated) here?
**A.** inconclusive: 31.6 µM [inhibitor, partial curve, poor fit]

**Q.** Which Potency does the source give for `O=C(O)COc1ccccc1/C=N/NC(=O)c1cc2ccccc2cc1O` here?
**A.** inconclusive: 39.8 µM [inhibitor, partial curve, poor fit]

**Q.** Which Potency does the source give for `O=C(NCC1Cn2cccc2CN1Cc1ccccc1)c1c[nH]c2ccccc12` (configuration not stated) here?
**A.** inconclusive: 10 µM [inhibitor, partial curve]

**Q.** With `CONC(=O)C(NC(=O)c1ccccc1F)C(C)C` (configuration not stated) as the molecule, how does the Potency read?
**A.** inactive

**Q.** `CCn1c(CN2CCCCC2)nc2cc(NC(=O)c3ccccc3[N+](=O)[O-])ccc21` was tested. Which Potency did it give?
**A.** inactive

**Q.** How did the Potency turn out when `Cc1cc2ncn(-c3ccc([N+](=O)[O-])cc3Cl)c2cc1C` was run?
**A.** inactive

**Q.** `CC(C)C(NC(=O)C1CCN(C(=O)C2CC2)CC1)c1nccn1C` (configuration not stated) was tested. Which Potency did it give?
**A.** inconclusive: 14.1 µM [inhibitor, partial curve]

**Q.** With `Cc1nn(-c2ccccc2)c(OC(=O)c2ccc(F)cc2)c1S(=O)(=O)c1ccccc1` as the molecule, how does the Potency read?
**A.** inconclusive: 39.8 µM [inhibitor, single point]

**Q.** How did the Potency turn out when `COc1cc(NC(=O)c2ccc3c(c2)N(C)C2CCCN2C3=O)cc(OC)c1OC` (configuration not stated) was run?
**A.** inconclusive: 20 µM [inhibitor, partial curve, poor fit]

**Q.** Which Potency does the source give for `CC(C)CS(=O)(=O)N[C@@H]1C[C@H](Cn2cc(CN(C)C)nn2)[C@@H](O)[C@H]1O` here?
**A.** inconclusive: 31.6 µM [inhibitor, single point]

**Q.** How did the Potency turn out when `Cn1cccc1C(=O)N1CCC(Nc2cccnc2)C1` (configuration not stated) was run?
**A.** inactive

**Q.** `Cc1cccc(OCCSc2nc3ccc(NC(=O)c4cccs4)cc3s2)c1` was tested. Which Potency did it give?
**A.** inconclusive: 35.5 µM [inhibitor, partial curve, poor fit]

**Q.** With `CCNC(=O)c1ccccc1N` as the molecule, how does the Potency read?
**A.** inconclusive: 25.1 µM [inhibitor, partial curve, poor fit]

**Q.** With `CCn1ccc(C(=O)N2CCC3(CC2)NCCc2c3[nH]c3ccc(OC)cc23)n1` as the molecule, how does the Potency read?
**A.** inconclusive: 28.2 µM [inhibitor, single point]

**Q.** How did the Potency turn out when `O=C(CCc1c(-c2ccc(F)cc2)[nH]c2ccccc12)N1CCCC1` was run?
**A.** inconclusive: 22.4 µM [inhibitor, partial curve, poor fit]

**Q.** Which Potency does the source give for `Cc1ccc(OCC(=O)Nc2cc(-c3nc4ccccc4[nH]3)ccc2C)c(C)c1` here?
**A.** inconclusive: 11.2 µM [inhibitor, partial curve, poor fit]

**Q.** How did the Potency turn out when `CC(=O)c1ccc(NC(=O)c2ccc(NC(=O)CCS(=O)(=O)c3cccs3)cc2)cc1` was run?
**A.** inconclusive: 28.2 µM [inhibitor, partial curve, poor fit]

**Q.** Which Potency does the source give for `CCc1nc2nccc(-c3ccc(OC)c(OC)c3)n2n1` here?
**A.** active: 20 µM

**Q.** `CCCCC(=O)Nc1cc2nn(-c3ccc(OCC)cc3)nc2cc1C` was tested. Which Potency did it give?
**A.** inconclusive: 28.2 µM [inhibitor, partial curve, poor fit]

**Q.** Which Potency does the source give for `CC(NC(=O)CSc1nc(CN2CCOCC2)nc2ccccc12)c1ccccc1` (configuration not stated) here?
**A.** inactive

**Q.** With `CCOc1ccc2c(c1)C=C(C(=O)NCC(F)(F)F)CO2` as the molecule, how does the Potency read?
**A.** inactive

**Q.** For `CCn1cc(C(=O)O)c(=O)c2cc(F)c(N3CCN(C(=S)NC(=O)c4ccccc4F)CC3)cc21`, which Potency is on record?
**A.** inconclusive: 35.5 µM [inhibitor, partial curve, poor fit]

**Q.** Which Potency does the source give for `CCOc1cc(=O)n2c(c1C(=O)Nc1cc(F)ccc1F)CCCC2` here?
**A.** inactive

**Q.** Which Potency does the source give for `Cc1ccc(-c2ccc3nnc(CNC(=O)Cc4cccc(Cl)c4)n3n2)cc1` here?
**A.** inconclusive: 8.91 µM [inhibitor, partial curve, poor fit]

**Q.** Which Potency does the source give for `CCN1c2cc(C(=O)N3CCN(c4ccc(F)cc4)CC3)ccc2C(=O)N2CCCCC21` (configuration not stated) here?
**A.** inconclusive: 20 µM [inhibitor, partial curve, poor fit]

**Q.** How did the Potency turn out when `COC(=O)c1cc(OC)ccc1OCC(=O)NCC(F)(F)F` was run?
**A.** inconclusive: 39.8 µM [inhibitor, single point]

**Q.** How did the Potency turn out when `Cc1onc(-c2ccc(F)cc2F)c1C(=O)NCc1cccs1` was run?
**A.** inactive

**Q.** How did the Potency turn out when `CCc1ccc(NC(=O)CNC(=O)Cn2ccc3ccccc3c2=O)cc1` was run?
**A.** inconclusive: 20 µM [inhibitor, partial curve, poor fit]

**Q.** For `COc1ccc(Nc2c(-c3ccc(C)o3)nc3ccc(Cl)cn23)cc1`, which Potency is on record?
**A.** inconclusive: 15.8 µM [inhibitor, partial curve, poor fit]

**Q.** `CC(C)(O)C#Cc1ccccc1C(=O)NC(CSCc1ccccc1)C(=O)O` (configuration not stated) was tested. Which Potency did it give?
**A.** inactive

**Q.** `CCCN(Cc1cc2ccc(C)cc2[nH]c1=O)S(=O)(=O)c1ccccc1` was tested. Which Potency did it give?
**A.** inconclusive: 35.5 µM [inhibitor, partial curve, poor fit]

**Q.** How did the Potency turn out when `Cc1cccnc1C(=O)N[C@@H]1CN(c2ncccn2)C[C@H]1CO` was run?
**A.** active: 20 µM

**Q.** `O=C(CCC1CCN(C(=O)c2ccccc2Cl)CC1)N1CCc2ccccc2C1` was tested. Which Potency did it give?
**A.** inconclusive: 20 µM [inhibitor, partial curve, poor fit]

**Q.** How did the Potency turn out when `CC(C)C[C@@H]1N[C@H](C(=O)NCc2ccc(F)cc2)Cc2cn(C)c3cccc1c23` was run?
**A.** inconclusive: 31.6 µM [inhibitor, partial curve, poor fit]

**Q.** Which Potency does the source give for `COc1cccc(CN(C)c2nc3ccccc3nc2NS(=O)(=O)c2ccccc2)c1` here?
**A.** inconclusive: 22.4 µM [inhibitor, partial curve, poor fit]

**Q.** With `COc1ccc2[nH]c(C(=O)NCC(=O)Nc3ccc4c(c3)OCCO4)cc2c1OC` as the molecule, how does the Potency read?
**A.** inconclusive: 22.4 µM [inhibitor, single point]

**Q.** For `CSC(=S)N/N=C1/CCc2ccccc21`, which Potency is on record?
**A.** inactive

**Q.** `CN(CC(=O)NC1(C#N)CCCC1)c1ccccc1` was tested. Which Potency did it give?
**A.** inactive

**Q.** How did the Potency turn out when `Cc1cccc(OCC(=O)OCc2cc(=O)n3nc(-c4cccs4)sc3n2)c1` was run?
**A.** inconclusive: 3.16 µM [inhibitor, full curve, poor fit]

**Q.** `CN(Cc1ccccc1F)S(=O)(=O)c1cn(C)c(=O)n(C)c1=O` was tested. Which Potency did it give?
**A.** inactive

**Q.** `CNC(=O)CSc1cc(-c2ccccc2)c2ccc(OC)cc2n1` was tested. Which Potency did it give?
**A.** inconclusive: 35.5 µM [inhibitor, single point]

**Q.** How did the Potency turn out when `O=C(O)CC1S/C(=N/N=C/c2ccccn2)NC1=O` (configuration not stated) was run?
**A.** inconclusive: 17.8 µM [inhibitor, partial curve, poor fit]
